Among the data in PMC9911399, “Two distinct binding modes provide the RNA-binding protein RbFox with extraordinary sequence specificity” are binding signal values, retold here.

The labels stand for the following.
T1: RBFOX1 RRM RbFoxmut (Fox-RRM*) (Homo sapiens, UniProt Q9NWB1 109-208, R118D;E147R;N151S;E152T)
T1 sequence: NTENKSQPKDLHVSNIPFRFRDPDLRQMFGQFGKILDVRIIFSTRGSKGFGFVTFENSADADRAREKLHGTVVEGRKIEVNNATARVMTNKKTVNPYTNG

B1: UGGCUCC (DNA:RNA)
RNA: GGGAGACCGGAAUUCAGAUUGUCCUGGCUCCUUAAAUCCCGUCGUAGCCACCA
DNA 1: CAATCTGAATTCCGGTCTCCC
DNA 2: TGGTGGCTACGACGGGATT
B2: UCUGCAA (DNA:RNA)
RNA: B1 RNA with G26C, G27U, C28G, U29C, C30A, C31A
DNA 1: CAATCTGAATTCCGGTCTCCC
DNA 2: TGGTGGCTACGACGGGATT
B3: GUGGGCG (DNA:RNA)
RNA: B1 RNA with U25G, G26U, C28G, U29G, C31G
DNA 1: CAATCTGAATTCCGGTCTCCC
DNA 2: TGGTGGCTACGACGGGATT
B4: ACUGGGC (DNA:RNA)
RNA: B1 RNA with U25A, G26C, G27U, C28G, U29G, C30G
DNA 1: CAATCTGAATTCCGGTCTCCC
DNA 2: TGGTGGCTACGACGGGATT
B5: GCCCCGG (DNA:RNA)
RNA: B1 RNA with U25G, G26C, G27C, U29C, C30G, C31G
DNA 1: CAATCTGAATTCCGGTCTCCC
DNA 2: TGGTGGCTACGACGGGATT
B6: CUUGGAU (DNA:RNA)
RNA: GGGAGACCGGAAUUCAGAUUGUCCCUUGGAUUUAAAUCCCGUCGUAGCCACCA
DNA 1: CAATCTGAATTCCGGTCTCCC
DNA 2: TGGTGGCTACGACGGGATT
B7: CUGGAGG (DNA:RNA)
RNA: B6 RNA with U27G, G29A, A30G, U31G
DNA 1: CAATCTGAATTCCGGTCTCCC
DNA 2: TGGTGGCTACGACGGGATT
B8: UUUCACU (DNA:RNA)
RNA: B6 RNA with C25U, G28C, G29A, A30C
DNA 1: CAATCTGAATTCCGGTCTCCC
DNA 2: TGGTGGCTACGACGGGATT
B9: UCAGGGA (DNA:RNA)
RNA: B6 RNA with C25U, U26C, U27A, A30G, U31A
DNA 1: CAATCTGAATTCCGGTCTCCC
DNA 2: TGGTGGCTACGACGGGATT
B10: GGUCCUA (DNA:RNA)
RNA: B1 RNA with U25G, G27U, U29C, C30U, C31A
DNA 1: CAATCTGAATTCCGGTCTCCC
DNA 2: TGGTGGCTACGACGGGATT
B11: UUAAGUG (DNA:RNA)
RNA: B6 RNA with C25U, U27A, G28A, A30U, U31G
DNA 1: CAATCTGAATTCCGGTCTCCC
DNA 2: TGGTGGCTACGACGGGATT
B12: AUUGUGA (DNA:RNA)
RNA: B6 RNA with C25A, G29U, A30G, U31A
DNA 1: CAATCTGAATTCCGGTCTCCC
DNA 2: TGGTGGCTACGACGGGATT
B13: GGGAGUA (DNA:RNA)
RNA: B1 RNA with U25G, C28A, U29G, C30U, C31A
DNA 1: CAATCTGAATTCCGGTCTCCC
DNA 2: TGGTGGCTACGACGGGATT
B14: ACACCCA (DNA:RNA)
RNA: B1 RNA with U25A, G26C, G27A, U29C, C31A
DNA 1: CAATCTGAATTCCGGTCTCCC
DNA 2: TGGTGGCTACGACGGGATT
B15: CAUGUGA (DNA:RNA)
RNA: B6 RNA with U26A, G29U, A30G, U31A
DNA 1: CAATCTGAATTCCGGTCTCCC
DNA 2: TGGTGGCTACGACGGGATT
B16: GGGGAUG (DNA:RNA)
RNA: B1 RNA with U25G, C28G, U29A, C30U, C31G
DNA 1: CAATCTGAATTCCGGTCTCCC
DNA 2: TGGTGGCTACGACGGGATT
B17: UUGACGU (DNA:RNA)
RNA: B6 RNA with C25U, U27G, G28A, G29C, A30G
DNA 1: CAATCTGAATTCCGGTCTCCC
DNA 2: TGGTGGCTACGACGGGATT
B18: CGGCCUC (DNA:RNA)
RNA: B1 RNA with U25C, U29C, C30U
DNA 1: CAATCTGAATTCCGGTCTCCC
DNA 2: TGGTGGCTACGACGGGATT
B19: AAUGCCU (DNA:RNA)
RNA: B6 RNA with C25A, U26A, G29C, A30C
DNA 1: CAATCTGAATTCCGGTCTCCC
DNA 2: TGGTGGCTACGACGGGATT
B20: GCCUCAA (DNA:RNA)
RNA: B6 RNA with C25G, U26C, U27C, G28U, G29C, U31A
DNA 1: CAATCTGAATTCCGGTCTCCC
DNA 2: TGGTGGCTACGACGGGATT

Changes are numbered by the printed parent chain; changes in the protein carry UniProt numbers. This is one part of the list.

In this assay the target is T1, RBFOX1 RRM RbFoxmut (Fox-RRM*). Briefly: EMSA; HiTS-Eq, 1 nM pool, 10 min; buffer printed only for the single-RNA assays: 10 mM Tris pH 7.5, 150 mM NaCl, 3.4 mM EDTA, 0.001% NP-40, 30 C. The conditions noted are these: tags: His6 N-terminal (pET28a); label: 5' 32P. The method, boiled down: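 Purified RbFox RRM (wild type or mutant) was equilibrated for 10 min in 50 µL with 1 nM of a 5′-radiolabelled pool of RNA with 7 randomized nucleotides, its flanks annealed to DNA oligonucleotides, across increasing protein concentrations. Free RNA was separated by 8% native PAGE, excised, reverse-transcribed, PCR-barcoded and sequenced on an Illumina HiSeq 2500. Relative association constants came from read-count changes of each variant against the control reaction, normalised to the cognate motif.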
(Mobility shift assays separate free from complexed probe on a gel.)
On to B1, for which the binding signal is 0.157 KA relative to UGCAUGU.

On to B2, for which the binding signal was 0.0595 KA relative to UGCAUGU.

Regarding B3, the binding signal is 0.18 KA relative to UGCAUGU.

For B4, the binding signal is 0.0912 KA relative to UGCAUGU.

As to B5, the binding signal was 0.0762 KA relative to UGCAUGU.

Take B6: the binding signal was 0.105 KA relative to UGCAUGU.

As to B7, the binding signal was 0.0707 KA relative to UGCAUGU.

B8: the binding signal is 0.0648 KA relative to UGCAUGU.

With B9, the binding signal was 0.0515 KA relative to UGCAUGU.

Take B10: the binding signal is 0.103 KA relative to UGCAUGU.

With B11, the binding signal is 0.122 KA relative to UGCAUGU.

B12: the binding signal was 0.0934 KA relative to UGCAUGU.

Turning to B13, the binding signal was 0.152 KA relative to UGCAUGU.

Regarding B14, the binding signal is 0.0786 KA relative to UGCAUGU.

With B15, the binding signal is 0.102 KA relative to UGCAUGU.

For B16, the binding signal was 0.612 KA relative to UGCAUGU.

Regarding B17, the binding signal was 0.0791 KA relative to UGCAUGU.

With B18, the binding signal is 0.129 KA relative to UGCAUGU.

Regarding B19, the binding signal is 0.0832 KA relative to UGCAUGU.

As to B20, the binding signal is 0.093 KA relative to UGCAUGU.
